Assay results reported in the supplement of paper PMC4967469.
pIC50: −log10 of the molar value. Lines with a small IC50 respond at low doses; where the fit passes the top or lowest dose, that dose stands as a limit. AUC, from the same fit, is the share of area under the viability curve across the 256-fold dose range; the more sensitive the line, the further below 1. For part of these data: A top dose marked as inferred was calculated from the reported fits. For part of these data: Where an entry number is given, a second screen of the drug exists; the two often differ.

Experiments:
Test in all cases: Viability of human cancer cell lines after 72 h of drug (GDSC screen)
YM201636 = compound: Nc1ccc(C(=O)Nc2cccc(-c3nc(N4CCOCC4)c4oc5ncccc5c4n3)c2)cn1 [YM201636]; conditions: top dose 5.12 µM; top dose inferred
Experimental: (§1)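 Human cancer cell lines in 384-well plates, medium with 10% serum, drug for 72 h over a 256-fold dose range (nine 2-fold or five 4-fold steps up to the top dose). Adherent lines were fixed and stained with the nucleic acid dye Syto60, suspension lines read with resazurin; signal relative to control wells, capped at 0 and 100%. One two-parameter sigmoid per drug and line, fitted in a mixed model over all curves with the slope shared within a line.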

AZD6244 = compound: Cn1cnc2c(F)c(Nc3ccc(Br)cc3Cl)c(C(=O)NOCCO)cc21 [AZD6244]; conditions: top dose 4 µM; screen: GDSC drug entry 1498; top dose inferred
Experimental: as §1

AS601245 = compound: N#CC(c1ccnc(NCCc2cccnc2)n1)c1nc2ccccc2s1 [AS601245]; conditions: top dose 8 µM; top dose inferred
Experimental: as §1

EX-527 = compound: NC(=O)C1CCCc2c1[nH]c1ccc(Cl)cc21 [EX-527]; conditions: top dose 20 µM
Experimental: as §1

Row | Cell Line | AUC (YM201636) | pIC50 (YM201636) | AUC (AZD6244) | pIC50 (AZD6244) | AUC (AS601245) | pIC50 (AS601245) | AUC (EX-527) | pIC50 (EX-527)
1 | OE19 (oesophagus, adherent) | 0.982 | < 5.29 | 0.907 | < 5.40 | 0.787 | 5.40 | 0.978 | < 4.70
2 | OE21 (oesophagus, adherent) | 0.93 | < 5.29 | 0.732 | 5.83 | 0.841 | < 5.10 | 0.975 | < 4.70
3 | OE33 (oesophagus, adherent) | 0.792 | 5.55 | 0.888 | < 5.40 | 0.815 | 5.26 | 0.981 | < 4.70
4 | OSC-19 (head and neck, adherent) | 0.939 | < 5.29 | 0.925 | < 5.40 | 0.839 | 5.24 | 0.978 | < 4.70
5 | OSC-20 (head and neck, adherent) | 0.949 | < 5.29 | 0.872 | < 5.40 | 0.799 | 5.33 | 0.979 | < 4.70
6 | OVCAR-3 (ovary, adherent) | 0.985 | < 5.29 | 0.981 | < 5.40 | 0.877 | < 5.10 | 0.983 | < 4.70
7 | OVCAR-5 (ovary, adherent) | 0.966 | < 5.29 | 0.453 | 6.74 | 0.863 | < 5.10 | 0.982 | < 4.70
8 | OVCAR-8 (ovary, adherent) | 0.811 | 5.63 | 0.937 | < 5.40 | 0.818 | 5.41 | 0.988 | < 4.70
9 | OVISE (ovary, adherent) | 0.886 | < 5.29 | 0.836 | < 5.40 | 0.867 | < 5.10 | 0.981 | < 4.70
10 | OVKATE (ovary, adherent) | 0.724 | 5.66 | 0.849 | < 5.40 | 0.923 | < 5.10 | 0.973 | < 4.70
11 | OVMIU (ovary, adherent) | 0.778 | 5.58 | 0.826 | 5.49 | 0.702 | 5.67 | 0.981 | < 4.70
12 | OVTOKO (ovary, adherent) | 0.949 | < 5.29 | 0.824 | 5.48 | 0.627 | 5.91 | 0.976 | < 4.70
13 | PA-TU-8902 (pancreas, adherent) | 0.93 | < 5.29 | 0.397 | 6.91 | 0.937 | < 5.10 | 0.95 | < 4.70
14 | PA-TU-8988T (pancreas, adherent) | 0.961 | < 5.29 | 0.588 | 6.36 | 0.839 | 5.26 | 0.971 | < 4.70
15 | PANC-02-03 (pancreas, adherent) | 0.851 | < 5.29 | 0.596 | 6.32 | 0.962 | < 5.10 | 0.981 | < 4.70
16 | PANC-03-27 (pancreas, adherent) | 0.951 | < 5.29 | 0.822 | 5.67 | 0.715 | 5.71 | 0.987 | < 4.70
17 | PANC-04-03 (pancreas, adherent) | 0.963 | < 5.29 | 0.675 | 5.98 | 0.944 | < 5.10 | 0.974 | < 4.70
18 | PANC-08-13 (pancreas, adherent) | 0.881 | < 5.29 | 0.953 | < 5.40 | 0.732 | 5.55 | 0.983 | < 4.70
19 | PANC-10-05 (pancreas, adherent) | 0.899 | < 5.29 | 0.77 | 5.71 | 0.773 | 5.40 | 0.971 | < 4.70
20 | PC-3 (prostate, adherent) | 0.878 | < 5.29 | 0.963 | < 5.40 | 0.861 | < 5.10 | 0.97 | < 4.70
21 | PC-3 [JPC-3] (lung adenocarcinoma, adherent) | 0.936 | < 5.29 | 0.948 | < 5.40 | 0.739 | 5.51 | 0.954 | < 4.70
22 | PC-14 (lung adenocarcinoma, adherent) | 0.909 | < 5.29 | 0.972 | < 5.40 | 0.768 | 5.57 | 0.989 | < 4.70
23 | PCI-4B (head and neck, adherent) | 0.945 | < 5.29 | 0.658 | 6.17 | 0.857 | 5.22 | 0.983 | < 4.70
24 | PCI-6A (head and neck, adherent) | 0.885 | < 5.29 | 0.935 | < 5.40 | 0.859 | 5.19 | 0.988 | < 4.70
25 | PCI-15A (head and neck, adherent) | 0.981 | < 5.29 | 0.885 | < 5.40 | 0.881 | < 5.10 | 0.983 | < 4.70
26 | PCI-30 (head and neck, adherent) | 0.934 | < 5.29 | 0.931 | < 5.40 | 0.985 | < 5.10 | 0.984 | < 4.70
27 | PCI-38 (head and neck, adherent) | 0.887 | < 5.29 | 0.906 | < 5.40 | 0.918 | < 5.10 | 0.985 | < 4.70
